Assay results taken from paper PMC11549776.
These are yes or no findings as the source states them, for the method shown. In cells and extracts the contact can be indirect. Some results given as binding are weak or reduced against the parent protein; the word gives no strength. For some assays here: Sequences can lack the tags named with a protein.

Protein sequences, listed by entry. Tags and fused reporters are not part of them. Lines headed by an entry give the natural chain unless they say otherwise; changes in a name come on top.
UniProt Q13315: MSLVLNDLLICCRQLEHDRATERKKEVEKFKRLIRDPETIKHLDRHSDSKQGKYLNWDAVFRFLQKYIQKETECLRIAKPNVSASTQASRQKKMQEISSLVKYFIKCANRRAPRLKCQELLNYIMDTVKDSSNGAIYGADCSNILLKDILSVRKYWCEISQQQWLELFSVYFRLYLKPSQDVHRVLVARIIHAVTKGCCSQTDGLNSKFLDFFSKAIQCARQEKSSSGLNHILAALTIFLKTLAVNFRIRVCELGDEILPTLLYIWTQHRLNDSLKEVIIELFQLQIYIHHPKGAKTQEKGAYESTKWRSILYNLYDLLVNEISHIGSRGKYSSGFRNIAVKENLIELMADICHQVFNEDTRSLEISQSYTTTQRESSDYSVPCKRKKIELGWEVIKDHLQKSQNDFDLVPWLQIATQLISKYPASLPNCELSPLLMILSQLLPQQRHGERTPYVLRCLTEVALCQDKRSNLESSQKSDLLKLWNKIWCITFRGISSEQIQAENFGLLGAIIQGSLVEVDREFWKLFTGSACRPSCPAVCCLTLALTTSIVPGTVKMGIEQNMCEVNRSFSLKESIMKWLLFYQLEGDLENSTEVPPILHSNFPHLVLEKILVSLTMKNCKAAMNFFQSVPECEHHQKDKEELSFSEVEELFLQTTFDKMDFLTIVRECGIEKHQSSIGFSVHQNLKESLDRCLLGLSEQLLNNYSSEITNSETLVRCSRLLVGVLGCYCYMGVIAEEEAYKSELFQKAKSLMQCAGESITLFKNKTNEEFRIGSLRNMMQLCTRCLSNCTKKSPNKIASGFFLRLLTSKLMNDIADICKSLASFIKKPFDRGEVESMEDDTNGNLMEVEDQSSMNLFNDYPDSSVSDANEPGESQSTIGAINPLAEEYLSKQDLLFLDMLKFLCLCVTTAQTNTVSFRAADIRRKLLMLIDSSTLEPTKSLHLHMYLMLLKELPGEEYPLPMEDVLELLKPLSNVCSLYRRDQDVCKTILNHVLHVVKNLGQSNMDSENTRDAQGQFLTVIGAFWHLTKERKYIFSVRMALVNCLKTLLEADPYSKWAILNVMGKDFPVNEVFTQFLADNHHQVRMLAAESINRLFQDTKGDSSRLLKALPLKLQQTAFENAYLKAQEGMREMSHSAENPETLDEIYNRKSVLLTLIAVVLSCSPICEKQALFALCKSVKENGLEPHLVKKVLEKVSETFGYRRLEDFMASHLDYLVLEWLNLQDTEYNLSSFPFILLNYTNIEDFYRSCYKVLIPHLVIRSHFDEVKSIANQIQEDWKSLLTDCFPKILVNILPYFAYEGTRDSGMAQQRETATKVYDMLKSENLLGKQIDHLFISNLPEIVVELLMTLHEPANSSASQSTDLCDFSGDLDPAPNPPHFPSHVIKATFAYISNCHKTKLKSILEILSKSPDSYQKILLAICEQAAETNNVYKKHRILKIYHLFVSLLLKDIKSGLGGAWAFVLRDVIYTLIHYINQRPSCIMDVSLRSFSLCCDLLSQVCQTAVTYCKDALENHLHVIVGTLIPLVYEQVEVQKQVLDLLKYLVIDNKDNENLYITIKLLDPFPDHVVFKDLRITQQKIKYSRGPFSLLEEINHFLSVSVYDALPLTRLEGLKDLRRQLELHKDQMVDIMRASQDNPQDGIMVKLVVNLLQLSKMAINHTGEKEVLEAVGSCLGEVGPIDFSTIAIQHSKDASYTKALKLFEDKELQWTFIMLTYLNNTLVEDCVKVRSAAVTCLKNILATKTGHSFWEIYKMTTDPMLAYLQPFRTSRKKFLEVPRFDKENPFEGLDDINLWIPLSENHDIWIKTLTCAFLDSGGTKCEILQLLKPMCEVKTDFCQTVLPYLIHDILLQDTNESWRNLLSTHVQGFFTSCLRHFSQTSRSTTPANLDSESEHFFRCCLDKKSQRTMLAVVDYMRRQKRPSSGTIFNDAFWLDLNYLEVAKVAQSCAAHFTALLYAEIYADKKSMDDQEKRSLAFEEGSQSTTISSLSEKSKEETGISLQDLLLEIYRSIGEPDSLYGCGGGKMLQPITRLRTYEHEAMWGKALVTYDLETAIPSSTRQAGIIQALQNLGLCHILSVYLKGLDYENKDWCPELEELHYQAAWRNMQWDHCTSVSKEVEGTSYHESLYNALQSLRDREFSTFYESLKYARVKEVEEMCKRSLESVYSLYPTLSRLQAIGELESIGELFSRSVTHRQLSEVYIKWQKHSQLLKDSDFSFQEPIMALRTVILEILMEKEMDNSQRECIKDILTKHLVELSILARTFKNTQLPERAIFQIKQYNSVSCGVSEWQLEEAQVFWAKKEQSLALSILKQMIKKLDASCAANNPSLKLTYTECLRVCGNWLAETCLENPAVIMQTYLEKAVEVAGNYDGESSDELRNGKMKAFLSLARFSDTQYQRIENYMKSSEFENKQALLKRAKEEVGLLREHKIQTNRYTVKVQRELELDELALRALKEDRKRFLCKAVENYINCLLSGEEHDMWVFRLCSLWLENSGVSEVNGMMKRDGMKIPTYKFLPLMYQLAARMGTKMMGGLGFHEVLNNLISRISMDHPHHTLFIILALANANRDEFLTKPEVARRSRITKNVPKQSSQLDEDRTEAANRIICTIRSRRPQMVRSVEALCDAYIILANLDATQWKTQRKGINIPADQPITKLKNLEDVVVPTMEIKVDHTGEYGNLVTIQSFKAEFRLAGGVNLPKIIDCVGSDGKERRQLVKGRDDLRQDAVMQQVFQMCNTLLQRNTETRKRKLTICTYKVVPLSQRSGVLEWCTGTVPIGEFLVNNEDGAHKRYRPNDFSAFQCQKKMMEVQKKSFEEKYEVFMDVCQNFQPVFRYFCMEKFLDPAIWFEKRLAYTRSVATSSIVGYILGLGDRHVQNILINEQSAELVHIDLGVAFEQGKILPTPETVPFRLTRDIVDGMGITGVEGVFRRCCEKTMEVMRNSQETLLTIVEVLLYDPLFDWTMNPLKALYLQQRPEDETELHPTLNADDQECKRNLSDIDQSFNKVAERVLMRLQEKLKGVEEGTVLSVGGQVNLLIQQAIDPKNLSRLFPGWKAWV

Legend:
[1] = biological target: ATM (ataxia telangiectasia mutated), endogenous (human (endogenous in HIEC-6)) (UniProt Q13315); experiment: co-IP; reciprocal co-IP from HIEC-6 cell lysates, indicated antibodies at 4 °C overnight, protein A/G, immunoblot
[2] = biological target: ATM (ataxia telangiectasia mutated), endogenous (human (endogenous in HIEC-6)) (UniProt Q13315); experiment: proximity ligation; Duolink In Situ Red Mouse/Rabbit kit on fixed, permeabilised HIEC-6 cells; endogenous ATM and USP15
[3] = biological target: Myc-ATM (ataxia telangiectasia mutated) (UniProt Q13315); experiment: co-IP; ATM expressed together with USP15 or its truncated mutants; cell line not stated
[4] = biological target: Myc-ATM (ataxia telangiectasia mutated) (UniProt Q13315); experiment: co-IP; HEK293T cells expressing Flag-USP15 WT or C298A and Myc-ATM; anti-Flag and anti-Myc antibodies
GST-ATM = GST-ATM (UniProt Q13315); experiment: pull-down; bacterially expressed GST or GST-ATM incubated with Flag-USP15 WT or C298A lysed from HEK293T cells; GST Protein Interaction Pull-Down Kit; analysed by Coomassie Brilliant Blue; only the target purified

Binder | binding [1] | binding [2] | binding [3] | binding [4] | binding (GST-ATM)
USP15 (ubiquitin-specific protease 15), endogenous (enzyme, UniProt Q9Y4E8 1-981) MAEGGAADLDTQRSDIATLLKTSLRKGDTWYLVDSRWFKQWKKYVGFDSWDKYQMGDQNVYPGPIDNSGLLKDGDAQSLKEHLIDELDYILLPTEGWNKLVSWYTLMEGQEPIARKVVEQGMFVKHCKVEVYLTELKLCENGNMNNVVTRRFSKADTIDTIEKEIRKIFSIPDEKETRLWNKYMSNTFEPLNKPDSTIQDAGLYQGQVLVIEQKNEDGTWPRGPSTPKSPGASNFSTLPKISPSSLSNNYNNMNNRNVKNSNYCLPSYTAYKNYDYSEPGRNNEQPGLCGLSNLGNTCFMNSAIQCLSNTPPLTEYFLNDKYQEELNFDNPLGMRGEIAKSYAELIKQMWSGKFSYVTPRAFKTQVGRFAPQFSGYQQQDCQELLAFLLDGLHEDLNRIRKKPYIQLKDADGRPDKVVAEEAWENHLKRNDSIIVDIFHGLFKSTLVCPECAKISVTFDPFCYLTLPLPMKKERTLEVYLVRMDPLTKPMQYKVVVPKIGNILDLCTALSALSGIPADKMIVTDIYNHRFHRIFAMDENLSSIMERDDIYVFEININRTEDTEHVIIPVCLREKFRHSSYTHHTGSSLFGQPFLMAVPRNNTEDKLYNLLLLRMCRYVKISTETEETEGSLHCCKDQNINGNGPNGIHEEGSPSEMETDEPDDESSQDQELPSENENSQSEDSVGGDNDSENGLCTEDTCKGQLTGHKKRLFTFQFNNLGNTDINYIKDDTRHIRFDDRQLRLDERSFLALDWDPDLKKRYFDENAAEDFEKHESVEYKPPKKPFVKLKDCIELFTTKEKLGAEDPWYCPNCKEHQQATKKLDLWSLPPVLVVHLKRFSYSRYMRDKLDTLVDFPINDLDMSEFLINPNAGPCRYNLIAVSNHYGGMGGGHYTAFAKNKDDGKWYYFDDSSVSTASEDQIVSKAAYVLFYQRQDTFSGTGFFPLDRETKGASAATGIPLESDEDSNDNDNDIENENCMHTN | binds | binds | – | – | –
Flag-USP15 wild-type (ubiquitin-specific protease 15) (enzyme, UniProt Q9Y4E8 1-981) MAEGGAADLDTQRSDIATLLKTSLRKGDTWYLVDSRWFKQWKKYVGFDSWDKYQMGDQNVYPGPIDNSGLLKDGDAQSLKEHLIDELDYILLPTEGWNKLVSWYTLMEGQEPIARKVVEQGMFVKHCKVEVYLTELKLCENGNMNNVVTRRFSKADTIDTIEKEIRKIFSIPDEKETRLWNKYMSNTFEPLNKPDSTIQDAGLYQGQVLVIEQKNEDGTWPRGPSTPKSPGASNFSTLPKISPSSLSNNYNNMNNRNVKNSNYCLPSYTAYKNYDYSEPGRNNEQPGLCGLSNLGNTCFMNSAIQCLSNTPPLTEYFLNDKYQEELNFDNPLGMRGEIAKSYAELIKQMWSGKFSYVTPRAFKTQVGRFAPQFSGYQQQDCQELLAFLLDGLHEDLNRIRKKPYIQLKDADGRPDKVVAEEAWENHLKRNDSIIVDIFHGLFKSTLVCPECAKISVTFDPFCYLTLPLPMKKERTLEVYLVRMDPLTKPMQYKVVVPKIGNILDLCTALSALSGIPADKMIVTDIYNHRFHRIFAMDENLSSIMERDDIYVFEININRTEDTEHVIIPVCLREKFRHSSYTHHTGSSLFGQPFLMAVPRNNTEDKLYNLLLLRMCRYVKISTETEETEGSLHCCKDQNINGNGPNGIHEEGSPSEMETDEPDDESSQDQELPSENENSQSEDSVGGDNDSENGLCTEDTCKGQLTGHKKRLFTFQFNNLGNTDINYIKDDTRHIRFDDRQLRLDERSFLALDWDPDLKKRYFDENAAEDFEKHESVEYKPPKKPFVKLKDCIELFTTKEKLGAEDPWYCPNCKEHQQATKKLDLWSLPPVLVVHLKRFSYSRYMRDKLDTLVDFPINDLDMSEFLINPNAGPCRYNLIAVSNHYGGMGGGHYTAFAKNKDDGKWYYFDDSSVSTASEDQIVSKAAYVLFYQRQDTFSGTGFFPLDRETKGASAATGIPLESDEDSNDNDNDIENENCMHTN | – | – | binds | binds | binds
Flag-USP15 C298A mutant (catalytically inactive mutant of USP15) (enzyme, UniProt Q9Y4E8 1-981) MAEGGAADLDTQRSDIATLLKTSLRKGDTWYLVDSRWFKQWKKYVGFDSWDKYQMGDQNVYPGPIDNSGLLKDGDAQSLKEHLIDELDYILLPTEGWNKLVSWYTLMEGQEPIARKVVEQGMFVKHCKVEVYLTELKLCENGNMNNVVTRRFSKADTIDTIEKEIRKIFSIPDEKETRLWNKYMSNTFEPLNKPDSTIQDAGLYQGQVLVIEQKNEDGTWPRGPSTPKSPGASNFSTLPKISPSSLSNNYNNMNNRNVKNSNYCLPSYTAYKNYDYSEPGRNNEQPGLCGLSNLGNTAFMNSAIQCLSNTPPLTEYFLNDKYQEELNFDNPLGMRGEIAKSYAELIKQMWSGKFSYVTPRAFKTQVGRFAPQFSGYQQQDCQELLAFLLDGLHEDLNRIRKKPYIQLKDADGRPDKVVAEEAWENHLKRNDSIIVDIFHGLFKSTLVCPECAKISVTFDPFCYLTLPLPMKKERTLEVYLVRMDPLTKPMQYKVVVPKIGNILDLCTALSALSGIPADKMIVTDIYNHRFHRIFAMDENLSSIMERDDIYVFEININRTEDTEHVIIPVCLREKFRHSSYTHHTGSSLFGQPFLMAVPRNNTEDKLYNLLLLRMCRYVKISTETEETEGSLHCCKDQNINGNGPNGIHEEGSPSEMETDEPDDESSQDQELPSENENSQSEDSVGGDNDSENGLCTEDTCKGQLTGHKKRLFTFQFNNLGNTDINYIKDDTRHIRFDDRQLRLDERSFLALDWDPDLKKRYFDENAAEDFEKHESVEYKPPKKPFVKLKDCIELFTTKEKLGAEDPWYCPNCKEHQQATKKLDLWSLPPVLVVHLKRFSYSRYMRDKLDTLVDFPINDLDMSEFLINPNAGPCRYNLIAVSNHYGGMGGGHYTAFAKNKDDGKWYYFDDSSVSTASEDQIVSKAAYVLFYQRQDTFSGTGFFPLDRETKGASAATGIPLESDEDSNDNDNDIENENCMHTN | – | – | – | binds | binds
USP15 D3 deletion mutant (deletion residues 740–981) (domain or fragment, UniProt Q9Y4E8 1-739) MAEGGAADLDTQRSDIATLLKTSLRKGDTWYLVDSRWFKQWKKYVGFDSWDKYQMGDQNVYPGPIDNSGLLKDGDAQSLKEHLIDELDYILLPTEGWNKLVSWYTLMEGQEPIARKVVEQGMFVKHCKVEVYLTELKLCENGNMNNVVTRRFSKADTIDTIEKEIRKIFSIPDEKETRLWNKYMSNTFEPLNKPDSTIQDAGLYQGQVLVIEQKNEDGTWPRGPSTPKSPGASNFSTLPKISPSSLSNNYNNMNNRNVKNSNYCLPSYTAYKNYDYSEPGRNNEQPGLCGLSNLGNTCFMNSAIQCLSNTPPLTEYFLNDKYQEELNFDNPLGMRGEIAKSYAELIKQMWSGKFSYVTPRAFKTQVGRFAPQFSGYQQQDCQELLAFLLDGLHEDLNRIRKKPYIQLKDADGRPDKVVAEEAWENHLKRNDSIIVDIFHGLFKSTLVCPECAKISVTFDPFCYLTLPLPMKKERTLEVYLVRMDPLTKPMQYKVVVPKIGNILDLCTALSALSGIPADKMIVTDIYNHRFHRIFAMDENLSSIMERDDIYVFEININRTEDTEHVIIPVCLREKFRHSSYTHHTGSSLFGQPFLMAVPRNNTEDKLYNLLLLRMCRYVKISTETEETEGSLHCCKDQNINGNGPNGIHEEGSPSEMETDEPDDESSQDQELPSENENSQSEDSVGGDNDSENGLCTEDTCKGQLTGHKKRLFTFQFNNLGNTDINYIKDDTRHIRFDDR | – | – | no binding | – | –
